# Measurements published in the RNAGym collection of RNA variant scans (doi:10.7554/elife.90254).
# The source gives no read counts; variants with many changes may rest on few reads.
# B1: LINE1-mini (parent)
# chain: GGCAGAGCUCAACACAGCGUGGCAAAGUGGCUGUGGCUAGACUGCC
# Variants of: B1
# Assay: self-cleavage, relative activity (ratio to wild type); higher = more cleavage; in vitro, sequencing; the parent is a self-cleaving ribozyme
row,Variant,self-cleavage
1,C10G G17A U20C C45U,0.05
2,C10U G21A A25C,0.44
3,C10U A11C G19A,0.12
4,C10U A12C G17U C23U G35U,0
5,C10U A11G U32G G35A,0
6,C10G G22U U32C G33U,0.01
7,C10U G19A G33A G44U,0.06
8,C10U G21A G33U C42A U43A,0.03
9,C10U C31U C45A,0.05
10,C10U C42U C45G,0.05
11,C10G G29C G30U C45U,0.04
12,C10U G22C U32C A39U G40C U43C C46U,0.01
13,C10U G22A A26C C37A A41G C45G,0.01
14,C10U A26U G29C G30A,0.74
15,C10U A39U G40C,0.01
16,C10U C15G A26G C37U,0.01
17,C10U C15U G19U G21C G22U C42U,0.08
18,C10G G21U G35U A41G,0.02
19,C10U C13G G35A,0.02
20,C10U G17A C18A G29U G33C,0.03
21,C10G G17U C23G G40U C42U C45G,0.02

row,Variant,self-cleavage
1,C10U A26G C37G G40U C46A,0.05
2,C10U C15A A25U G27U G29C,0.03
3,C10U C13U A16G C23A G40A,0.02
4,C10U A11G C46A,0.02
5,C10U A11C G44A C45A,0.03
6,C10G G22A C37A,0
7,C10U C15A G21C A41C U43A,0.02
8,C10G G22A A26U U43G,0
9,C10U A14U G22C U32G G40A,0.02
10,C10U A12U U20G C46A,0.05
11,C10U G19U G35U U43C,0.09
12,C10U A25U G35U,0.05
13,C10U C18U G19C,0.31
14,C10U C18U G30C,0.92
15,C10U C13A G21C,0.03
16,C10U C15U C46A,0.17
17,C10U A25G U28C G30U G35A,0.02
18,C10G G22U G33C,0.02
19,C10G G22U G33U,0.03
20,C10U C13U G21A G36A A39C,0.39
21,C10U C15A G36A,0.04

row,Variant,self-cleavage
1,C10U A14U G29C A39U G44C,0.01
2,C10U A11U G22A G33C,0
3,C10U A12U G17C G35U,0.11
4,C10U C18A A24U G40U,0.01
5,C10U A16U A39C,0.05
6,C10U G17A G33C C46G,0
7,C10G G17C U34G G40U,0.01
8,C10U A12U U28G G35A C45A,0.08
9,C10U A26G G33U U38A,0.02
10,C10G G29U U32C A39C,0.01
11,C10U C15A C23U U34G,0.08
12,C10U A14C C31A,0.02
13,C10U A25G G29C,0.19
14,C10G G21U A41G,0.02
15,C10G G19U U20G U34A,0.08
16,C10G C45G C46G,0.04
17,C10U C13U G19C A39C,0.02
18,C10U C13U G22A C46A,0.06
19,C10U A12G U28A,0.02
20,C10U C18U A24U G27U,0.16
21,C10U A12C G36A,0.02

row,Variant,self-cleavage
1,C10U A11C A16G,0.02
2,C10U A25C A26U C37A,0.02
3,C10G U28C G33A,0.06
4,C10G U28C U32G G33A,0
5,C10U G19A G21A G22C,0.19
6,C10U C37U G44U,0.1
7,C10G G21C C42A,0.02
8,C10U G21U A24U C37U,0.03
9,C10G G21C C23U C42U U43A,0
10,C10G G33U U34A,0.04
11,C10U G19A U20A C37G,0.02
12,C10U C13U U20G G22C A25C G35U,0
13,C10G G29C C45U,1.46
14,C10G G36A C42U,0.03
15,C10U A24G C37G C46G,0.03
16,C10U C13U C15U A26U U32A U43C,0.02
17,C10U A11C C18A G29C,0.02
18,C10U G27A A39G C45U,0.04
19,C10U G21C G29U U34A G35U C45U,0.02
20,C10G G27A A39C C46A,0.04
21,C10G U28G G33C,0.04
